This note sets out measurements from PubChem BioAssay (NCI).

“And” between values parts separate entries of the source, which are not always exact repeats. Identical values can stand only once.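 Grown in 96-well plates, cells were treated for 48 hours with each compound at five concentrations. Insufficient inhibition: endpoint recorded as highest concentration tested. GI50: concentration for 50% inhibition of growth. TGI: total growth inhibition.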

The test system of the assay is NCI-H322M lung. The assay can be described thus: inhibition of tumour cell growth, NCI panel, 48 h.
For the compound `COC(=O)C(Cc1nc2ccc(Cl)cc2[nH]c1=O)C(=O)C(=O)Nc1ccccc1[N+](=O)[O-]` (stereo not given), the TGI was above 100 µM.
Still for that read-out and setting: then `CC1CC/C(=C\c2ccc(N(C)C)cc2)C(=O)/C1=C/c1ccc(N(C)C)cc1` (stereo not given), with above 100 µM.
Still for that read-out and setting: as for `COC1OC(COC(=O)NCCCCC(=O)C(F)(F)F)C(O)C(O)C1O` (stereo not given), the figure is above 100 µM; as for `Cc1ccc(-n2cnc3c(N/N=C4\SCC(=O)N4c4ccccc4)ncnc32)cc1`, 25.4 µM.
With `Cc1nnc2sc(-c3ccc(-c4ccccc4Cl)o3)nn12`, the TGI was above 100 µM.
`COc1ccc(CSc2nc3ccccc3nc2-c2cccs2)cc1` came in with a TGI above 100 µM.
The same measure, in the same setting: then `CSc1c(C(=O)Nc2ccc(Cl)cc2)c(N)[nH]c(=O)c1C#N`, with above 92.8 µM; and `Cn1c(=O)nc2n(-c3ccc(Cl)cc3Cl)c3ccccc3nc-2c1=O`, with 20.4 µM; and `CN(C)c1ccc(/C=C/c2cc[n+](C)c3ccccc23)cc1`, with 19.6 µM.
With `CCc1c[nH]c2ncnc(N3CC[C@@](N)(CNC(=O)c4ccc(F)cc4F)C3)c12`, the GI50 was 48.6 µM and the TGI was above 100 µM.
Compound `Nc1ccc(S(=O)(=O)c2ccc(NC(=O)c3cccnc3)cc2)cc1` registered a TGI above 100 µM.
`COc1ccc(-c2c(C#N)c(S)n(C3OC(CO)C(O)C(O)C3O)c(=O)c2C#N)cc1` (stereo not given) displayed a TGI above 100 µM.
Compound `N#Cc1ccccc1NC(=O)c1ccccc1` displayed a TGI above 100 µM.
As for `COc1cc2c(c(OC)c1OC)C(=O)[C@H]1OC(=O)N[C@@H]21`, the TGI was above 100 µM.
On the same count and under the same terms, as for `CCO[C@@H]1C2C=CC(C2)[C@H]1[N+](=O)[O-]` (stereo not given in full), the figure is above 100 µM.
Take `COc1ccc2c(c1)nc(N)c1c3cccnc3cn21`: the GI50 is 1.53 µM and the TGI was found to be 57 µM.
For the compound `CCCCCc1c(C)[nH]c(/C=C2\N=C(c3ccc[nH]3)C=C2Oc2ccc(Cl)cc2)c1C`, the GI50 was 0.169 µM and 0.0734 µM; the TGI worked out at 74.3 µM.
For `N/N=C(\Cc1ccccc1)NN=C(N)N`, the TGI was above 100 µM.
As for `C1=NCCOCCN=Cc2ccccc2OCc2cccc(n2)COc2ccccc21`, the TGI was above 25 µM.
`CCC1CN2CCc3cc(OC)c(OC)cc3C2CC1CC1c2cc(OC)c(OC)cc2CCN1C(=O)CNC(=O)OC(C)(C)C` (stereo not given): the TGI was 26.3 µM.
In turn, `COC(=O)c1cc(-c2c[nH]cc2C(=O)OCc2ccccc2)cn1S(=O)(=O)c1ccc(C)cc1` gave a TGI above 100 µM.
Still for that read-out and setting: as for `O=C1C(N=Nc2ccc(-c3nc4ccccc4o3)cc2)NC(=S)N1c1ccccc1` (stereo not given), the figure is above 100 µM; as for `FC(F)(F)C12C34C=CC5(CCC6(C=CC1(CC3)O6)C52C(F)(F)F)O4` (stereo not given), above 100 µM.
Still for that read-out and setting: then `Cc1cc(NS(=O)(=O)c2ccc(Nc3c4ccccc4nc4ccc(C(=O)Nc5ccc(S(=O)(=O)N=C(N)N)cc5)cc34)cc2)no1`, with above 100 µM; and `C[C@H](CSC(=O)c1ccccc1)C(=O)N1c2ccccc2C[C@H]1C(=O)O`, with above 100 µM.
On the same count and under the same terms, then `CN(N)/N=N/c1nc[nH]c1C(N)=O`, with above 100 µM; and `Cc1ccc(C(=O)C#Cc2cn(C3CC(O)C(CO)O3)c(=O)[nH]c2=O)cc1` (stereo not given), with above 100 µM.
Take `C/C=C(/CCCCNCCCC)[Si](C)(C)C`: the TGI was found to be 27.5 µM.
As for `C[C@H](CS(C)(=O)=O)Nc1ncc2cc(Oc3ccc(F)cc3F)c(=O)n(C)c2n1`, the GI50 is above 25 µM and the TGI is above 25 µM.
On to `COc1ccc2c(C(=O)O)cc3cc(OC)c(OC)cc3c2c1`, for which the TGI was above 100 µM.
The same measure, in the same setting: as for `COc1ccc(/C=C(\NC(=O)c2ccccc2)C(=O)NN(C)c2ccnc3cc(Cl)ccc23)cc1OC`, the figure is above 100 µM.
On the same count and under the same terms, then `CC(=O)c1cccc(NCn2nnc3ccccc32)c1`, with above 100 µM.
For `CCCCCCCCCCCCC(=O)[O-].CCCCCCCCCCCCC(=O)[O-].CCCCCCCCCCCCC(=O)[O-].CCCCCCCCCCCCC(=O)[O-].[Mo+2].[Mo+2]`, the GI50 was 19.5 µM and the TGI worked out at 67.6 µM.
For `CS(=O)(=O)Nc1cc(-c2ccc3ncnc(Nc4ccc5c(cnn5Cc5ccc(F)cc5)c4)c3c2)cnc1Cl`, the GI50 is 1.49 µM and the TGI was 4.51 µM.
Take `O=C(O)CCC1CCc2cccc3occ1c23` (stereo not given): the TGI was above 100 µM.
Still for that read-out and setting: as for `CSc1nc(-c2ccccc2)c2c(n1)-c1ccccc1CC2`, the figure is above 100 µM; as for `O=C1CCc2cc3c(cc21)CC1(Cc2ccccc2C1)C3`, above 94.1 µM; as for `O=C(Nc1ccc2c(c1)oc(=O)c1ccccc12)C(Cl)Cl`, 47.9 µM.
On the same count and under the same terms, then `COc1ccc(COCC(Cn2ccnc2)OCc2ccc(C(=O)O)cc2)cc1` (stereo not given), with above 100 µM; and `Nc1nnc(-c2ccco2)c(-c2ccco2)n1`, with above 100 µM.
Same read-out and setting: as for `CCc1cc2c(cc1CCCC(=O)O)CC1(Cc3ccc(C(=O)O)cc3C1)C2` (stereo not given), the figure is above 100 µM.
In turn, `C=C(N=[N+]=[N-])c1cn(C2CC(O)C(CO)O2)c(=O)[nH]c1=O` (stereo not given) had a TGI above 100 µM.
Regarding `O=C(Nc1ccc([N+](=O)[O-])cc1)C(=O)C(C(=O)c1ccccc1F)C1OC(=O)c2ccccc21` (stereo not given), the TGI came to 92 µM.
On to `CCCCC[C@H]1C/C=C2/C(=O)C(Cl)=C[C@@H]2C/C=C\CCCC(=O)O[C@@H](CCCCC)C/C=C2/C(=O)C(Cl)=C[C@@H]2C/C=C\CCCC(=O)O1`, for which the GI50 is 0.702 µM and the TGI was 2.52 µM.
`O=C1C(=O)N(C2C3CC4CC(C3)CC2C4)C(=O)C(=O)C1c1nc2ccccc2o1` (stereo not given): the TGI was above 100 µM.
On the same count and under the same terms, as for `CC(C)CNC(=O)Cn1c2c(c3ccccc31)CCCC2`, the figure is above 100 µM.
For `CCOC(=O)c1cnn(-c2ccnc3c(C(F)(F)F)cccc23)c1N`, the GI50 is above 100 µM and the TGI is above 100 µM.
For the compound `CC(C)OC(=O)c1ccc2[nH]c(O)c(C(=Nc3ccc(N(C)C(=O)CN4CCN(C)CC4)cc3)c3ccccc3)c2c1`, the GI50 was 1.2 µM and the TGI turned out to be 2.76 µM.
Regarding `O=C1N[C@@H]([C@H](CCCCCO)OC(=O)c2ccccc2)CO1`, the TGI was above 100 µM.
For the compound `Fc1ccc(Nc2nc(NCCNc3ccnc4cc(Cl)ccc34)nc(N3CCOCC3)n2)cc1`, the GI50 is 11.8 µM and the TGI came to 24.5 µM.
For `COc1cnc2c(c1)C(=O)c1c-2n(CCCN2CCCC2)c(=O)c2cc(Cl)ccc12`, in that order: 1.68 µM and 9.75 µM.
Compound `CC(C)=CCC/C(C)=C/Cc1c(O)ccc2c1[nH]c1cc(O)c(C)cc12` had a TGI above 25 µM.
`N#CC1C(N)=NNC12Nc1ccccc1N2` (stereo not given): the GI50 was above 100 µM and the TGI is above 100 µM.
As to `CCN1C(=O)N(CC)C2C1NN=c1s/c(=C3\C(=O)N(C)c4ccccc43)c(=O)n12` (stereo not given), the GI50 is 14.8 µM and the TGI was above 100 µM.
On to `COc1cc2cc(Oc3ccc(NC(=O)c4ccc(Cl)c(C(F)(F)F)c4)cc3)c(C)nc2cc1OC`, for which the GI50 was 55.7 µM and the TGI is above 100 µM.
Compound `COC1CC(n2cnc3c(N)ncnc32)OC1CO` (stereo not given) had a TGI above 100 µM.
Still for that read-out and setting: then `Cc1cccc(C(C)(C)C)c1NC(=O)C(=O)C(c1cnc2ccccc2n1)[N+](=O)[O-]` (stereo not given), with above 100 µM.
With `CC(C)[C@@H](COC(C)(C)C)N=CN1CCc2c([nH]c3ccccc23)C1`, the TGI was above 100 µM.
Regarding `COc1ccc(/C=C2\CCCC3=C2NC(C)=NC3c2ccc(OC)c(OC)c2)cc1OC` (stereo not given), the GI50 is above 100 µM and the TGI was above 100 µM.
`C=CC12CN(C)C3C4COC(CC41)C1(C(=O)Nc4ccccc41)C32` (stereo not given) showed a TGI above 200 µM.
Same read-out and setting: as for `Cc1cccc(C)c1NC(=O)CCCC(=O)C1CCC/C1=N\NC(=O)C(=O)NN` (stereo not given), the figure is above 100 µM.
As for `Cc1c(C)c2ccc(OC/C=C3\CCC(=O)O3)cc2oc1=O`, the GI50 was 13.4 µM and the TGI stood at 27.4 µM.
For the compound `CN(C)CCNC(=O)c1ccc(Cl)c2c(Nc3ccc(S(N)(=O)=O)cc3)c3ccccc3nc12`, the TGI worked out at 11.6 µM.
Still for that read-out and setting: then `c1ccc2c(c1)CCN2CCc1c[nH]c2ccccc12`, with above 10 µM; and `CC1=NN(C(=O)c2ccc(Cl)cc2)C(=O)/C1=C/c1cccc([N+](=O)[O-])c1`, with above 100 µM.
In the case of `CCOC(=O)CN1CCSC1=NC#N`, the TGI was above 100 µM.
The same measure, in the same setting: as for `NC(N)=NC(N)=Nc1c(F)c(F)c(F)c(F)c1F`, the figure is above 100 µM.
Still for that read-out and setting: then `CN=C(N)N/N=C(\C)c1ccc2oc3ccc(/C(C)=N/NC(N)=NC)cc3c2c1`, with above 100 µM.
The same measure, in the same setting: as for `N#Cc1ccc(OCc2ccc3nc(-c4ccccc4)c(Cl)nc3c2)cc1`, the figure is above 100 µM.
Regarding `O=[N+]([O-])/C(C(Cl)=C(Cl)Cl)=C1/OCCS1`, the TGI was above 100 µM.
`CC(C)=CC(=O)CC(=O)C(=O)Nc1ccc(Cl)c(Cl)c1` gave a TGI above 100 µM.
In turn, `CCOC(=O)C(NC(=O)NC(C(=O)OCC)C(=O)OCC)C(=O)OCC` returned a TGI above 100 µM.
Take `COc1ccc2cc3n(c2c1)CCc1cc(OC)c(OC)cc1-3`: the TGI was above 100 µM.
Same read-out and setting: then `CCCCCCCC(=O)N/N=C/c1ccc(Sc2nccn2C)c([N+](=O)[O-])c1`, with 79.9 µM; and `CCOC(=O)N1C2C=C(C)C(C3C(C)C(=O)N31)N(C(=O)c1ccccc1)O2` (stereo not given), with above 100 µM.
Same read-out and setting: as for `COc1cc(/C=C/C2=NN(c3cccc(S(=O)(=O)O)c3)C3(C2)C(Cl)C(=O)N3c2nc3ccccc3s2)ccc1O` (stereo not given), the figure is above 100 µM; as for `O=C(O)c1cc2c(s1)C(=O)c1sccc1C2=O`, 25.2 µM.
Regarding `COC(=O)[C@@H]1CCCN1C(=O)[C@@H]1CCCN1C(=O)[C@@H](Cc1c[nH]c2ccccc12)NC(=S)Nc1cc(C(F)(F)F)cc(C(F)(F)F)c1`, the GI50 is 19.6 µM and the TGI is above 100 µM.
The compound `COc1cc(Oc2c(O)c(C)c(OC)c(C(C)=O)c2O)c(C(C)=O)c(O)c1C` gave a TGI above 100 µM.
Same read-out and setting: then `Cc1c2cnccc2nc2[nH]c3ccncc3c12`, with 41.6 µM.
On to `CC1=CC(=O)C(C(C)=Nc2ccccc2Cl)C(=O)O1` (stereo not given), for which the GI50 is above 100 µM and the TGI was above 100 µM.
With `CCOC(=O)N1CCN(S(=O)(=O)c2oc(-c3ccc(Cl)cc3)nc2C#N)CC1`, the GI50 was above 100 µM and the TGI is above 100 µM.
`Cc1cc(C)c(C)c(-n2[nH]c(=O)n(C)c2=O)c1C` showed a TGI above 100 µM.
Same read-out and setting: as for `[O-]c1on[n+]2c1c(Nc1ccc(Cl)cc1)nc1ccccc12`, the figure is above 100 µM; as for `CC(CCCOC(c1ccccc1)(c1ccccc1)c1ccccc1)OC(=O)Nc1cc([N+](=O)[O-])cc([N+](=O)[O-])c1` (stereo not given), above 100 µM.
Same read-out and setting: as for `C=C(C)[C@@H]1CC[C@@]2(C)[C@H]1[C@H]1CCC3[C@@]4(C)CC[C@H](O)C(C)(C)[C@@H]4CC[C@@]3(C)[C@]1(C)C[C@@H]2O` (stereo not given in full), the figure is above 100 µM.
